This is an account of results in article PMC4336329 (PLoS ONE, 2015).

The whole screen tested about 310,000 compounds, of which about 14,000 (4.5%) showed an effect of 50% or more. The effect is printed as a negative number. This is one part of the list.
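Note: peak tail current of the secondary pulse compared with the same well before compound.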

Chain of human ether-à-go-go-related gene (hERG) potassium channel (Q12809 whole entry, looked up): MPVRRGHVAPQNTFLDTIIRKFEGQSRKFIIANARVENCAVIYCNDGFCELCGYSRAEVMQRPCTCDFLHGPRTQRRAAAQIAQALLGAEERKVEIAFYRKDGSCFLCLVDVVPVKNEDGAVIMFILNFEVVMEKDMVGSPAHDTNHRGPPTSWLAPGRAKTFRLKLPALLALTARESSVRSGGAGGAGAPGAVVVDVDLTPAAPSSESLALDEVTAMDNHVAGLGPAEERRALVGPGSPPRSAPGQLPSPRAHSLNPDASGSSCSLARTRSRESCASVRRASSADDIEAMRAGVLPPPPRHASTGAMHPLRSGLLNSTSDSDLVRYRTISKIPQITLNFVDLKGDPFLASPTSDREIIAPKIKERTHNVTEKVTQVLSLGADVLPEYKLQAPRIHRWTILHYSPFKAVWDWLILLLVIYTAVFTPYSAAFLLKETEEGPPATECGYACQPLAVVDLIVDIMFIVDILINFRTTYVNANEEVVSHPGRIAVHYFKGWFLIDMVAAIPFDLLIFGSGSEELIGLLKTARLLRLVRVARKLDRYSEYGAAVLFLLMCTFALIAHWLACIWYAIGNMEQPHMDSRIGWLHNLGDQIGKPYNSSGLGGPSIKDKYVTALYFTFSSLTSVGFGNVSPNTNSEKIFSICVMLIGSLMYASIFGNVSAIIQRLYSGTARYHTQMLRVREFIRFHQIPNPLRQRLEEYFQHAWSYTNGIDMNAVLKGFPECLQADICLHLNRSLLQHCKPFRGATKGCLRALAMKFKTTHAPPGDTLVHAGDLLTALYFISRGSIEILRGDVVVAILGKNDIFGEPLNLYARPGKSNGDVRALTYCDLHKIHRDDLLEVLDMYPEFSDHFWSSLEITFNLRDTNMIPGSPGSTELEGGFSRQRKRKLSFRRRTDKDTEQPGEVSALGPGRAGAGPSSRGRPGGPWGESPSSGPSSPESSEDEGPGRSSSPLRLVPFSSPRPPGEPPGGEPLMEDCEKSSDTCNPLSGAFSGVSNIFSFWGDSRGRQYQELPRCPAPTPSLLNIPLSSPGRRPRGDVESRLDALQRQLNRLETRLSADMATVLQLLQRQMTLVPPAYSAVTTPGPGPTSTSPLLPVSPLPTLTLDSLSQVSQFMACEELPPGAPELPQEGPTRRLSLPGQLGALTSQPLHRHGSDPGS

This experiment addresses human ether-à-go-go-related gene (hERG) potassium channel (human, UniProt Q12809). The experiment in a line: primary screen, population patch clamp on CHO cells stably expressing hERG.
As to `C1CCc2nnc(C3CC3)n2CC1`, the “hERG current change (%, negative = inhibition) at 10uM” value came to 21%.
Consider `COc1ccc(CCNC(=O)CNCC(c2ccccc2)N(C)C)cc1OC.O=C(O)C(=O)O` (stereo not drawn), for which the “hERG current change (%, negative = inhibition) at 10uM” value came out at 19.9%.
For the compound `Cc1ccc(OCC(O)CNC(=O)c2ccccc2C(=O)O)cc1` (stereo not drawn), the “hERG current change (%, negative = inhibition) at 10uM” value is 2.66%.
On to `CCc1cccc(C)c1NC(=O)c1ccc(CN2CCc3ccccc3C2)cc1`, for which the “hERG current change (%, negative = inhibition) at 10uM” value was -0.345%.
On to `O=C(CNC(=O)Cc1ccccc1)NCC(=O)OCC(=O)c1ccc(Cl)cc1`, for which the “hERG current change (%, negative = inhibition) at 10uM” value came out at 12.7%.
As to `CCCCNC(=O)NS(=O)(=O)c1ccc(NC(=O)CCC(=O)c2cccs2)cc1`, the “hERG current change (%, negative = inhibition) at 10uM” value is 23.1%.
Next, `CC1CN(C(=O)CCC(=O)NCCc2ccccc2)c2ccccc2O1` (stereo not drawn): -9.06%; `O=C(O)c1ccc(-n2nnc3ccccc32)c([N+](=O)[O-])c1`: 13.7%; `CCOC(=O)c1cc2sccc2n1CC(=O)OC`: 4.34%.
Next, `CC(=O)c1cccc(NC(=O)CCNC(=O)c2ccccc2Cl)c1`: 11.4%; `Cn1c(C(=O)NCC2CCCO2)cc2oc3ccccc3c21` (stereo not drawn): -5.26%; `Cc1cc(C)c(OCCn2ccnc2)c(C)c1`: 15.4%.
`N/C(=N\OC(=O)c1cccc(F)c1)c1ccccc1`: the “hERG current change (%, negative = inhibition) at 10uM” value worked out at 11.1%.
On to `Cc1cc(Nc2ccc3c(c2)OCCO3)n2nc(C)nc2n1`, for which the “hERG current change (%, negative = inhibition) at 10uM” value is recorded as -9.32%.
For `CC(C)Oc1ccc(N2CC(C(=O)Nc3ccccc3F)CC2=O)cc1` (stereo not drawn), the “hERG current change (%, negative = inhibition) at 10uM” value was -17.2%.
In the case of `CCOC(=O)c1ccc(COC(=O)c2cc3ccccc3oc2=O)o1`, the “hERG current change (%, negative = inhibition) at 10uM” value is -48.6%.
Turning to `CCOC(=O)N1CCN(c2c(Nc3ccc4c(c3)OCCO4)c(=O)c2=O)CC1`, the “hERG current change (%, negative = inhibition) at 10uM” value stood at 6.3%.
In the case of `Cc1cccc(C)c1OCCOC(=O)c1cccc(S(=O)(=O)N2CCOCC2)c1`, the “hERG current change (%, negative = inhibition) at 10uM” value is -9.01%.
Regarding `O=C(O)CN1C(=O)COc2cc(S(=O)(=O)N3CCCC3)ccc21`, the “hERG current change (%, negative = inhibition) at 10uM” value was found to be 10.2%.
As for `Cl.Nc1ccc2nc(CCCO)[nH]c2c1`, the figure is 17%; as for `O=C(c1cnccn1)N1CCc2ccccc21`, 23.9%.
Regarding `COCCN1C(=O)C(=O)/C(=C(/O)c2cccc(OC)c2)C1c1ccc(C)o1` (stereo not drawn), the “hERG current change (%, negative = inhibition) at 10uM” value is listed as -14.5%.
Next, `CC(=O)Nc1ccc(C(=O)CSc2cc(C)c3cccc(C)c3n2)cc1`: 14%; `Cc1ccc2c(CC(=O)OCc3csc(C)n3)coc2c1`: 2.73%; `NS(=O)(=O)c1ccc(CCNC(=O)CSc2nc3ccsc3c(=O)n2CC2CCC(C(=O)O)CC2)cc1` (stereo not drawn): 26.9%.
In the case of `O=C(O)c1cc(S(=O)(=O)NC(Cc2c[nH]c3ccccc23)C(=O)O)ccc1Cl` (stereo not drawn), the “hERG current change (%, negative = inhibition) at 10uM” value came to 11.7%.
Next, `COC(=O)C1[C@H]2C(=O)N(Cc3cccs3)C[C@]23C=C[C@H]1O3` (stereo partly drawn): -29.4%; `Cc1ccnc(SCC(=O)O)n1`: 5.35%; `Nc1oc2ccccc2c(=O)c1C=O`: 8.89%.
Consider `Cc1ccc(O)c(Nc2ncnc3ccccc23)c1.Cl`, for which the “hERG current change (%, negative = inhibition) at 10uM” value is recorded as 11.8%.
As for `Cc1[nH]n2c(=O)c(C#N)c(-c3ccccc3)nc2c1-c1ccccc1`, the figure is 16.5%.
Turning to `COc1cccc(CNC(=O)CN2CCC(c3nc4ccc(C)cc4[nH]3)CC2)c1`, the “hERG current change (%, negative = inhibition) at 10uM” value is given as -68.4%.
Regarding `CC1SC(C)C(=O)N(CC(=O)Nc2ccc([N+](=O)[O-])cc2)C1=O` (stereo not drawn), the “hERG current change (%, negative = inhibition) at 10uM” value is -18.2%.
On to `N/C(=N\N=C\c1cccs1)SC1CC(=O)N(c2cccc([N+](=O)[O-])c2)C1=O` (stereo not drawn), for which the “hERG current change (%, negative = inhibition) at 10uM” value amounted to 5.92%.
Turning to `CCSc1[nH]c2ccccc2[nH+]1.[Cl-]`, the “hERG current change (%, negative = inhibition) at 10uM” value amounted to 5.51%.
On to `CS(=O)(=O)N1CCC(C(=O)NCc2ccco2)CC1`, for which the “hERG current change (%, negative = inhibition) at 10uM” value came out at 6.1%.
Take `O=C(NCCCN1CCOCC1)c1cc2ccccc2o1`: the “hERG current change (%, negative = inhibition) at 10uM” value is given as 4.37%.
As to `CN(C)C(CNC(=O)c1ccc(Br)cc1)c1ccco1` (stereo not drawn), the “hERG current change (%, negative = inhibition) at 10uM” value was 7.58%.
Take `O=C(CN1C(=O)COc2ccc(S(=O)(=O)N3CCOCC3)cc21)Nc1cccc(Cl)c1`: the “hERG current change (%, negative = inhibition) at 10uM” value amounted to 18.4%.
For the compound `Cc1nnc(SCC(=O)Nc2cc(-c3cc(C)c(C)cc3C)nn2-c2ccccc2)s1`, the “hERG current change (%, negative = inhibition) at 10uM” value is listed as -26.2%.
With `O=C(Nc1ccc(OC(=O)c2ccccc2)c(-c2nc3ccccc3s2)c1)c1ccccc1`, the “hERG current change (%, negative = inhibition) at 10uM” value is 21.5%.
With `CC1CCCCC1NC(=O)CCNS(=O)(=O)c1ccc(Cl)cc1` (stereo not drawn), the “hERG current change (%, negative = inhibition) at 10uM” value is -18.1%.
Consider `CCCCc1nc2cc(C(=O)NC(C)c3cnn(C)c3)ccc2o1` (stereo not drawn), for which the “hERG current change (%, negative = inhibition) at 10uM” value is -0.0448%.
Regarding `COc1ccc(S(=O)(=O)NCC2CCCO2)cc1NC(=O)c1ccccc1` (stereo not drawn), the “hERG current change (%, negative = inhibition) at 10uM” value was -15.4%.
Consider `CC(=O)OCCCNc1cc(Sc2ccc(Cl)cc2)c2nonc2c1[N+](=O)[O-]`, for which the “hERG current change (%, negative = inhibition) at 10uM” value is given as 17.5%.
